Measured values reported in publication PMC3302758 (Molecular Biology of the Cell, 2012).

Target: T1, 14-3-3β, endogenous in HEK293 cells (human (endogenous in HEK293), UniProt P31946 1-246)
T1 sequence (looked up): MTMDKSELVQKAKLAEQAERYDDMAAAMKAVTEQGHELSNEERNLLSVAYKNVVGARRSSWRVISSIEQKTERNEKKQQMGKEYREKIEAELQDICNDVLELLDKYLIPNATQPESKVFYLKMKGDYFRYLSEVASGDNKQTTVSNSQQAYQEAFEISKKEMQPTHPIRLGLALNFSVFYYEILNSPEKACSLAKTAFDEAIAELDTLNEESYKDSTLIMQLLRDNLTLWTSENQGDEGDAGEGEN
Assay: co-IP

B1: Cystic fibrosis transmembrane conductance regulator (CFTR), wild type, transiently expressed in HEK293 cells (natural protein)
chain: not shown
fold increase of the co-precipitate with forskolin against basal: ~2 fold
